Data reported in PubChem BioAssay (NCATS).
This list was built around the results that the source calls inconclusive (neither active nor inactive); the mix of calls is not that of the screen. For some assays here: Potencies of inconclusive entries are left out as doubtful fits. Calls of active or inactive are those of the source. Unless noted, the call rests on the fitted dose curve; in most records, active means well fitted curve in the direction sought with a large enough effect; inconclusive means small, poorly fitted or top-dose-only effect, or another doubt; inactive means no such curve, though single readings can be large; an effect the other way counts as inactive or inconclusive.

What was measured:
[1] = qHTS of pediatric cancer cell lines to identify multiple opportunities for drug repurposing: Primary screen for Saos-2 cells (AID 1347097); settings: Saos-2 viability, CellTiter-Glo ATP luminescence, 48 h; activity change, negative = cytotoxic: at 46 µM (top of the series); further: nearly all actives have a fitted effect of over 40% in size
Outline: (§1)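 Readout: CellTiter-Glo luminescence, 48 h treatment. Controls DMSO (neutral) and bortezomib 2.3 µM final (positive). Potency and efficacy taken from primary-screen concentration-response curves.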

[2] = qHTS of pediatric cancer cell lines to identify multiple opportunities for drug repurposing: Primary screen for control Hh wild type fibroblast cells (AID 1347106);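 further: a drop in luminescence marks cytotoxicity and a rise apparent proliferation; nearly all actives have a fitted effect of over 55% in size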
Outline: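 Viability after 48 h compound treatment at 37C, 500-1,000 cells/well, read as ATP luminescence with CellTiter-Glo. Primary screens used 11-point (MIPE, 0.78 nM-46 µM) or 8-point (NPC, 0.59 nM-46 µM) final concentrations; follow-up screens used 11-point dilutions.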

[3] = molecular target: Protein phosphatase 1D (Homo sapiens) (UniProt O15297); assay: RapidFire Mass Spectrometry qHTS Assay for Modulators of WT P53-Induced Phosphatase 1 (WIP1) (AID 1347424);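 further: amount of dephosphorylated VEPPL-S-QETFS peptide product formed by WIP1; potency means the concentration at half of the fitted maximal effect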
UniProt O15297, sequence (O15297 whole entry, looked up): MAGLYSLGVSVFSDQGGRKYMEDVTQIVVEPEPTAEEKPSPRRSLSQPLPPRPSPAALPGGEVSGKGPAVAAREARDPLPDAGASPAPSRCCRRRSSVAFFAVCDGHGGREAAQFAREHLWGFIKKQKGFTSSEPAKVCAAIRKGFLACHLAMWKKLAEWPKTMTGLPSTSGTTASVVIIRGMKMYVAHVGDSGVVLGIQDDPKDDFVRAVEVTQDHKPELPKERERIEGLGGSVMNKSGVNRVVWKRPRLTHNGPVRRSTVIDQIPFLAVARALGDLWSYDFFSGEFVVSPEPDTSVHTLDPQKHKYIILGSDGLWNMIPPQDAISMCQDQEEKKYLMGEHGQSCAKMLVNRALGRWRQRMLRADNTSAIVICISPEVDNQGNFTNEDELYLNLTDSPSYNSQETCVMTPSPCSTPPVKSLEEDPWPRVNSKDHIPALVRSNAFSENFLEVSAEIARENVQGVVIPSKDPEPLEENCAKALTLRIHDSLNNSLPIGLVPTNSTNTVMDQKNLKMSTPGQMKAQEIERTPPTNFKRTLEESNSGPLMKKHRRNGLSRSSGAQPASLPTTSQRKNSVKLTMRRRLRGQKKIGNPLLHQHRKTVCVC
Outline: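 WIP1 (10 nM final) was preincubated 1 h at room temperature with compounds in Tris-HCl pH 7.5, 30 mM MgCl2, TCEP, EGTA, BSA; 2 uM VEPPL-pS-QETFS phosphopeptide was added for 5 min, quenched with formic acid, and dephosphorylated product quantified by RapidFire MS.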

[4] = Primary qHTS for small molecule stabilizers of the endoplasmic reticulum resident proteome: Secreted ER Calcium Modulated Protein (SERCaMP) assay (AID 1508630); settings: SH-SY5Y GLuc-SERCaMP (Gaussia luciferase released on ER calcium loss) secretion, thapsigargin, luminescence; activity change, negative = inhibition: at 38.4 µM (top of the series) unless noted; further: potency means the concentration at half of the fitted maximal effect
Outline: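 GLuc-SERCaMP-expressing SH-SY5Y cells, pretreated 16 h with compound, are challenged with thapsigargin to empty ER calcium stores; after 4 h, coelenterazine is added directly to the medium and luminescence is imaged.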

[5] = molecular target: Cytochrome P450 2D6 (Homo sapiens) (UniProt P10635); assay: Cytochrome P450 family 2 subfamily D member 6 (CYP2D6) small molecule antagonists: luciferase biochemical (cell-free) qHTS assay (AID 1645840; active means well fitted curve in the direction sought with a large enough effect in the repeat runs; inconclusive means weak or mixed curves; inactive means no such curve, though single readings can be large; an effect the other way counts as inactive or inconclusive; further: potency means the concentration at half of the fitted maximal effect; nearly all actives have a fitted effect of over 55% in size)
UniProt P10635, sequence (P10635 whole entry, looked up): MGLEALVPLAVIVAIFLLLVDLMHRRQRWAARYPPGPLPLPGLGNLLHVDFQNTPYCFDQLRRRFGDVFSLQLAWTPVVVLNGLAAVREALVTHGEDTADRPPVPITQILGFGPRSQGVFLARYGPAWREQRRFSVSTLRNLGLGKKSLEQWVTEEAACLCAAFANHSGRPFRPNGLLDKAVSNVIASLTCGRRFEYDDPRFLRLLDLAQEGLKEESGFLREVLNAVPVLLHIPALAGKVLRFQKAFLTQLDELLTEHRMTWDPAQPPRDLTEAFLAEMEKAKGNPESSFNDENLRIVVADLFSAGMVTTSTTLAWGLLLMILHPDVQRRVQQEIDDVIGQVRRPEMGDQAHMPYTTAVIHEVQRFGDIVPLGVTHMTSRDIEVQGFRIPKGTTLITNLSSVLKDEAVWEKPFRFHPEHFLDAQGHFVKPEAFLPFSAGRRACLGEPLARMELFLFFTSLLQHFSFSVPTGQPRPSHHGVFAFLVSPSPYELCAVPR
Outline: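 P450-Glo luminescent screen: recombinant CYP2D6 enzyme–proluciferin substrate mix preincubated with compound 10 min at room temperature, then NADPH regeneration added for 1 h at room temperature. Detection reagent added for 20 min; luciferin light read as relative luminescence units.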

[6] = Primary qHTS for inhibitors of nuclear receptor binding SET domain protein 2 (NSD2) in an isogenic RCH-ACV NSD2 p.E1099K mutant (9B) (AID 1645876); settings: activity change, negative = viability loss: at 44.9 µM (top of the series) unless noted; further: nearly all actives have a fitted effect of over 70% in size
[7] = Primary qHTS for inhibitors of nuclear receptor binding SET domain protein 2 (NSD2) in an RCH-ACV wild type WT cells (2C) (AID 1645877); settings: activity change, negative = cell killing: at 44.9 µM (top of the series) unless noted; further: nearly all actives have a fitted effect of over 70% in size
OV90 = assay: Primary qHTS to identify gynecologic anti-cancer compounds using libraries of approved drugs and bioactive compounds (AID 1345084); settings: Gynecologic cancer cell panel viability, ATPlite luminescence, 48 h; series mostly up to 57.5 µM; further: nearly all actives have a fitted effect of over 55% in size
Outline: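 Cytotoxicity screen measuring ATP content by luciferase luminescence. Each compound is applied at five concentrations for 48 h at 37 C with 5% CO2.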

[8] = test system: Zika virus NS2B-NS3 protease (unlinked complex); assay: Primary screen GU Rhodamine qHTS for Zika virus inhibitors: Unlinked NS2B-NS3 protease assay (AID 1347159); settings: Recombinant ZIKV NS2B-NS3 protease, Rhodamine110 substrate fluorescence; activity change, negative = inhibition: at 107 µM (top of the series); further: nearly all actives have a fitted effect of over 60% in size; further: potency means the concentration at half of the fitted maximal effect
Outline: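 Noncovalent NS2B hydrophilic domain–NS3 protease domain complex (25 nM) preincubated 15 min at room temperature with compounds (up to 114 microM) in 10 mM Tris-HCl pH 8.0, 0.01% Tween 20; 1.5 microM Rhodamine110 substrate added, fluorescence change over 15 min fitted to Hill equation.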

[9] = test system: Zika virus NS2B-NS3 protease (linked construct); assay: Primary screen NINDS Rhodamine qHTS for Zika virus inhibitors (AID 1347160); further: potency means the concentration at half of the fitted maximal effect; nearly all actives have a fitted effect of over 55% in size
Outline: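 Purified linked NS2B-NS3 protease (NS2B hydrophilic domain joined to NS3 protease by flexible linker), 25 nM in 10 mM Tris-HCl pH 8.0, 0.01% Tween 20. Compounds titrated, 15 min preincubation at room temperature; 1.5 microM Rhodamine110 substrate, FITC fluorescence change over 15 min.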

[10] = qHTS of pediatric cancer cell lines to identify multiple opportunities for drug repurposing: Primary screen for A673 cells (AID 1347092); settings: A673 Ewing sarcoma viability, CellTiter-Glo ATP luminescence, 48 h; activity change, negative = cytotoxic: at 46 µM (top of the series); further: nearly all actives have a fitted effect of over 45% in size
Outline: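 Cell viability of A673 measured by CellTiter-Glo ATP luminescence after 48 hours compound exposure. Dilution series spanned 0.78 nM to 46 µM (MIPE, 11-point) or 0.59 nM to 46 µM (NPC, 8-point); bortezomib 2.3 uM positive control.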

[11] = qHTS of pediatric cancer cell lines to identify multiple opportunities for drug repurposing: Primary screen for BT-37 cells (AID 1347094)
Outline: as §1

[12] = qHTS of pediatric cancer cell lines to identify multiple opportunities for drug repurposing: Primary screen for SK-N-SH cells (AID 1347098); further: potency means the concentration at half of the fitted maximal effect; nearly all actives have a fitted effect of over 65% in size
Outline: (§2)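 Cells (500-1,000/well) rested 5 h, then received compounds for 48 h; metabolically active cells were measured by CellTiter-Glo luminescence. Final concentrations spanned up to 46 µM (MIPE, 11-point) or 0.59 nM-46 µM (NPC, 8-point) in primary screens, 11-point in follow-ups.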

[13] = qHTS of pediatric cancer cell lines to identify multiple opportunities for drug repurposing: Primary screen for LAN-5 cells (AID 1347100)
Outline: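 Cells (500-1,000/well) in growth media were settled 5 h at 37 degrees C, then given compounds for 48 h. Viability was read as CellTiter-Glo luminescence. Primary runs used MIPE at 11 points (0.78 nM-46 µM) and NPC at 8 points (0.59 nM-46 µM); follow-ups used 11 points.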

[14] = qHTS of pediatric cancer cell lines to identify multiple opportunities for drug repurposing: Primary screen for BT-12 cells (AID 1347101); further: nearly all actives have a fitted effect of over 25% in size
Outline: as §2

[15] = Primary fluorescence-based thiol-reactive (MSTI) qHTS assay for identification of artifact compounds. (AID 1845221);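 further: potency means the concentration at half of the fitted maximal effect; thiol-reactive compounds lower the probe fluorescence signal; nearly all actives have a fitted effect of over 65% in size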
Outline: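 Curve-fitted percent inhibition (4-parameter Hill) derived from fluorescence, Ex 525/Em 598 nm, scaled with Acetyl-MSTI and MSTI; 1 h incubation at room temperature.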
Tags describe the fitted curve by direction and shape.

For `CCc1cccc2c(CCO)c[nH]c12`, the Potency [1] was “inactive”, the Potency [2] was “inactive” and the Potency [3] was inconclusive [inhibitor, single point]. For the same compound, the Potency [4] was inconclusive [inhibitor, partial curve, poor fit], the Potency [5] was inconclusive [inhibitor, single point] and the Potency [6] was “inactive”. For the same compound, the Potency [7] was “inactive” and the Potency (OV90) was “inactive”.

For `CC(/C=C/C1(O)C2(C)COC1(C)CC(=O)C2)O[C@@H]1O[C@H](CO)[C@@H](O)[C@H](O)[C@H]1O` (stereo partly drawn), the Potency [8] was inconclusive [inhibitor, single point], the Potency [9] was inconclusive [inhibitor, partial curve] and the Potency [7] was “inactive”. The Potency (OV90) was “inactive”.

For `O=C1[C@@H]2[C@H]3CC[C@H](C3)[C@@H]2C(=O)N1CCCCN1CCN(c2ncccn2)CC1`, the Potency [10] was “inactive”, the Potency [11] was “inactive” and the Potency [12] was inconclusive [cytotoxic, full curve, poor fit]. For the same compound, the Potency [13] was “inactive”, the Potency [14] was “inactive” and the Potency [2] was “inactive”. For the same compound, the Potency [6] was “inactive” and the Potency (OV90) was “inactive”.

In the case of `COC(=O)C1(O)C(OC(C)=O)CCC2C3(CC(c4ccoc4)OC3=O)C(C)=CCC21C(=O)OC` (stereo not drawn), the Potency [8] is reported as “inactive”, the Potency [15] is reported as inconclusive [inhibitor, partial curve] and the Potency (OV90) is reported as “inactive”.
